PubChem BioAssay AID360 (National Center for Advancing Translational Sciences (NCATS), 2006)
Hit rate of the full screen: of about 48,000 compounds, about 550 (1.1%) were called active. About 4% were inconclusive and are not listed. No stated cut-off is given here; in the data, active means potency below about 15 µM; inconclusive means mostly about 16 µM to 33 µM; inactive means weaker than that. The list shows a part of the results.

Target: Lysosomal acid glucosylceramidase (Homo sapiens) (UniProt P04062)
UniProt P04062, sequence (P04062 whole entry, looked up): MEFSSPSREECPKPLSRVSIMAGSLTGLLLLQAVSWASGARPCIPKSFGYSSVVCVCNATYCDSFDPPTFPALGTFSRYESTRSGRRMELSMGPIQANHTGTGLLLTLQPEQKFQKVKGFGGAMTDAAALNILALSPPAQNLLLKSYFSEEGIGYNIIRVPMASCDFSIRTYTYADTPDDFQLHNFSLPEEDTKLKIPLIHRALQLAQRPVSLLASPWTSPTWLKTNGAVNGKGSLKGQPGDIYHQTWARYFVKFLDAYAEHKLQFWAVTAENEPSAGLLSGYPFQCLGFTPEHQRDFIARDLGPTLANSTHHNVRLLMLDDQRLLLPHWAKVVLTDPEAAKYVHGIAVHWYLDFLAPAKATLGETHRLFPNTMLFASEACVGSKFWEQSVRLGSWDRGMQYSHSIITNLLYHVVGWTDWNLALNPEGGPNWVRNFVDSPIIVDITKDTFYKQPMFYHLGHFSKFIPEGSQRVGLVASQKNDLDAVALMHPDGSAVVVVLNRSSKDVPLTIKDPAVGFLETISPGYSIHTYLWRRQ
Experiment: Glucocerebrosidase;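 further: the screen sought inhibitors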
Conditions: purified enzyme, resorufin glucoside fluorescence (screen aimed at inhibitors), 20 min; series mostly up to 77 µM
Summary of the method: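 Normal human glucocerebrosidase (0.2 nM final) was assayed with resorufin β-D-glucopyranoside (30 uM final) in 50mM citric acid/KH2PO4, 10mM sodium taurocholate, 0.01% tween-20, pH 5.9. Compounds were titrated; fluorescence (Ex 548, Em 600) read after 20 min at RT.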
Potency means the concentration at half of the fitted maximal effect.

Potency, inactive:
CCC(=O)n1nc(-c2ccc(OC)cc2)nc1N > 76.9 µM
COc1ccc(NS(=O)(=O)c2ccc3oc(Nc4ccc5c(c4)OCCO5)nc3c2)cc1 > 76.9 µM
Cn1c(=O)c2c(nc(CN3CCc4ccccc4C3)n2Cc2ccccc2F)n(C)c1=O > 76.9 µM
c1cnc(Oc2ccc(-c3nnco3)cc2)cn1 > 76.9 µM
CC(=O)N(c1c(C)n(C)n(-c2ccccc2)c1=O)C1(C(=O)NC2CCCC2)CCCCC1 > 76.9 µM
COC(=O)c1cc(C(=O)OC)cc(-n2c(C)cc(C(=O)CC#N)c2C)c1 > 76.9 µM
CCn1c(Cc2ccccc2)nnc1SCC(=O)Nc1nnc(-c2ccccc2)s1 > 76.9 µM
O=C(Nc1cccc(C(=O)N2CCOCC2)c1)c1cccnc1 > 76.9 µM
O=C(CN1C(=O)COc2ccccc21)NCc1ccc(C(=O)O)cc1 > 76.9 µM
CCc1ccc2oc(-c3cc(N)cc(C)c3O)nc2c1 > 76.9 µM
O=C(COC(=O)c1ccc(Cl)c(S(=O)(=O)N2CCCC2)c1)NC1CCCC1 > 76.9 µM
CCC(=O)Nc1ccc(Cl)c(NC(=O)c2cccnc2)c1 > 76.9 µM
CC(C)(C)Cc1nnc(NS(=O)(=O)c2ccc(F)cc2)s1 > 76.9 µM
CCOc1ccc(S(=O)(=O)N(CC(=O)O)c2ccc(C)cc2)cc1 > 76.9 µM
Cc1nc2nc(-c3ccccc3)cn2nc1C > 76.9 µM
O=C(O)CCOc1ccc2c(c1)OCCO2 > 76.9 µM
CC1=CC(C)(C)N=C(NC#N)N1 > 76.9 µM
N#CCCn1cnc2ccccc21 > 76.9 µM
CC(C)C(NC(=O)c1ccccc1)C(=O)NCc1ccccn1 (centres undefined) > 76.9 µM
COc1ccc(S(=O)(=O)CCC(=O)Nc2c(C)n(C)n(-c3ccccc3)c2=O)cc1 > 76.9 µM
Cc1ccc(CC(=O)NCC(C)C)cc1 > 76.9 µM
Cc1ccc(C)c(N=C2NC(=O)CS2)c1 > 76.9 µM
O=C(Nc1ccc(OC(=O)c2cccs2)cc1)c1ccco1 > 76.9 µM
O=C(Nc1ccc(-c2nc3ccccc3o2)cc1)c1ccc2c(c1)OCO2 > 76.9 µM
Cc1ccc2c(c1)NC(=O)C(N1CCOCC1)(C(F)(F)F)O2 (centres undefined) > 76.9 µM
CC1(C)NC(=O)N(CC(O)COc2ccccc2-c2ccccc2)C1=O (centres undefined) > 76.9 µM
CS(=O)(=O)N1CCC(C(=O)Nc2cc(C(F)(F)F)ccc2Cl)CC1 > 76.9 µM
CCOC(=O)N1CCN(c2c(N3CCN(c4cccc(C(F)(F)F)c4)CC3)c(=O)c2=O)CC1 > 76.9 µM
CS(=O)(=O)NCc1ccc(C(=O)NCc2ccccc2)cc1 > 76.9 µM
CCOc1ccc(-c2nnc(N)o2)cc1 > 76.9 µM
O=C(CCN1C(=O)c2ccccc2C1=O)N1CCN(c2ccccc2)CC1 > 76.9 µM
COc1ccc(-c2nc(C#N)c(NCc3ccc(C)cc3)o2)cc1OC > 76.9 µM
CCCCN(C(=O)Cn1nnc2ccccc21)C(C(=O)NCCOC)c1ccc(OC)cc1 (centres undefined) > 76.9 µM
C/C(N)=N\S(=O)(=O)c1ccc(Cl)cc1 > 76.9 µM
CCOC(=O)C(C(C)=O)c1c(Br)c(O)c(O)c2c(C(=O)c3ccc(C)cc3)coc12 (centres undefined) > 76.9 µM
COc1cccc(-n2nnc3c(=O)n(CC(=O)N4CCC(Cc5ccccc5)CC4)cnc32)c1 > 76.9 µM
Cn1c(=O)c2c(nc(Br)n2C)n(C)c1=O > 76.9 µM
CCCCn1c(C(C)NC(=O)c2cccs2)nc2ccccc21 (centres undefined)
O=C1CCCN1CN(C(=O)c1ccccc1)c1ccc(F)cc1 > 76.9 µM
N#Cc1ccccc1Sc1ccccc1C(=O)OCC(=O)N1CCN(C(=O)c2ccco2)CC1 > 76.9 µM
O=C(Nc1ccc2c(c1)OCCO2)C1CCN(C(=O)c2ccc(Br)cc2)CC1 > 76.9 µM
O=C(COc1ccc(S(=O)(=O)NCc2ccccc2)cc1)NCC1CCCO1 (centres undefined) > 76.9 µM
Cc1noc(C)c1COC(=O)CCCOc1ccc(Cl)cc1Cl > 76.9 µM
COc1ccc(CNC(=O)C2CCCN2S(=O)(=O)c2ccc(C)cc2)cc1 (centres undefined) > 76.9 µM
O=C(O)C(F)(F)S(=O)(=O)O > 76.9 µM
c1ccc(-c2cnn3nnnc3n2)cc1 > 76.9 µM
O=C(COC(=O)CCc1nc2ccccc2s1)Nc1ccc(S(=O)(=O)N2CCOCC2)cc1 > 76.9 µM
COc1ccc2c(c1)C(=O)N(c1ccccc1OC)C(=O)C2(C)C > 76.9 µM
C#CCOc1ccc2c(C)cc(=O)oc2c1 > 76.9 µM
Cn1cnnc1SCc1ccc(-c2ccc(Br)cc2)o1 > 76.9 µM
CC(=O)Nc1cccc(NC(=O)Nc2ccc(C(C)=O)cc2)c1 > 76.9 µM
COC(=O)CNC(=O)c1ccc2c(c1)S(=O)(=O)c1ccccc1C2=O > 76.9 µM
CCCS(=O)(=O)N1CCN(C(=O)c2cc(OC)cc(OC)c2)CC1 > 76.9 µM
CCOc1ccc(N2CC(C(=O)Oc3ccccc3)CC2=O)cc1 (centres undefined) > 76.9 µM
ON1C(c2ccccc2C(F)(F)F)N(O)[C@H]2CCCC[C@H]21 (some centres undefined) > 76.9 µM
Cc1csc(NC(=O)CSc2nnc(-c3ccoc3C)o2)n1 > 76.9 µM
CCCCNC(=O)CC1N=C2c3ccccc3N=C(SCC(=O)Nc3ccccc3C)N2C1=O (centres undefined) > 76.9 µM
Cc1ccc(CS(=O)(=O)CCC(=O)NCCCOC(C)C)cc1 > 76.9 µM
CCn1cc(C(=O)N2CCN(C3CCCCC3)CC2)c2cc(OC)c(OC)cc2c1=O > 76.9 µM
